From PubChem BioAssay AID588795 (National Center for Advancing Translational Sciences (NCATS), 2011)
Screen size: about 390,000 compounds; about 1,400 (0.36%) were called active. Inconclusive means that the source gave no clear call. Such entries were picked first, then a sample of the others. The call rests on the fitted dose curve; in most records, active means well fitted inhibition curve with a large enough effect; inconclusive means small, poorly fitted or top-dose-only effect; inactive means no such curve, though single readings can be large or run the other way. Potencies beside an inconclusive call are fits to weak or partial responses and may not hold up. Numbered stars: 1 amine (or outer) side, 2 acyl side, 3 side chain; on linkers, the order of the positions; unused ones are H or OH. Bridge positions count the residues as written; N and C are the ends. Square brackets hold non-standard residues; d marks the D form. Peptide text beside a SMILES is read from it. ξ: configuration not given here. hSer(Ph(2-I,4-NO2,6-CO)) = O=C([C@H](CCOc1c(I)cc([N+](=O)[O-])cc1C(=O)[*:3])N[*:1])[*:2]; ξD = NC(CC(=O)O)C(=O)O

biological target: Flap endonuclease 1 (Homo sapiens) (UniProt P39748); assay: qHTS Assay for the Inhibitors of Human Flap endonuclease 1 (FEN1).; further: nearly all actives have a fitted effect of over 65% in size; conditions: Recombinant FEN1 flap cleavage, fluorescence, 15 min; series mostly up to 114 µM; activity change, negative = inhibition: at the top concentration
Chain of UniProt P39748 (P39748 whole entry, looked up): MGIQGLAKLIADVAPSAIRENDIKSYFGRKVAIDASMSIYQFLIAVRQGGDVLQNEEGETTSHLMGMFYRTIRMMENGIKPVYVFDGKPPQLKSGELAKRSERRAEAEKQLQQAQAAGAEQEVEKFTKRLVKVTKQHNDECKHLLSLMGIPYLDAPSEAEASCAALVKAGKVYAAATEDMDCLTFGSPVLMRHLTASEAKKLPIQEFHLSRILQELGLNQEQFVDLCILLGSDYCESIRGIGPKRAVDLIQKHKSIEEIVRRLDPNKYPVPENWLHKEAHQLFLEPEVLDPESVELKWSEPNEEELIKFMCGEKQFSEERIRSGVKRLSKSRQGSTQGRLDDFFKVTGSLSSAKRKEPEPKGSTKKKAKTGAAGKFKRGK
In short: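 FEN1 at 10 nM preincubated with compounds 15 min at room temperature, then flap DNA substrate added at 50 nM final. Signal read at 0 and 15 min; concentration-response fitted with four-parameter Hill equation.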
On the % scale 0 is the no-effect control and ±100 the full control effect; potency means the concentration at half of the fitted maximal effect; tags describe the fitted curve by direction and shape.

| SMILES | Potency | activity change, negative = inhibition |
| --- | --- | --- |
| C=CCN1C(=O)/C(=C/C=C2/N(CC)c3ccc(S(=O)(=O)N(C)C)cc3N2CC)SC1=S | inconclusive: 11.2 µM [inhibitor, partial curve, poor fit] | – |
| NC(=O)C(CC(=O)O)NC(=O)[C@@H]1CCOc2c(I)cc([N+](=O)[O-])cc2C(=O)N[C@@H](CO)C(=O)N[C@@H](Cc2ccc(O)cc2)C(=O)N1 (stereo not given in full) (SY[hSer(Ph(2-I,4-NO2,6-CO))][ξD]-NH2; lactam N-3) | inconclusive: 70.8 µM [inhibitor, partial curve, poor fit] | – |
| COC(=O)C1NN=C(C(=O)c2ccc(Br)cc2)C1c1cccc(Br)c1 (stereo not given) | inconclusive: 79.4 µM [inhibitor, partial curve, poor fit] | – |
| O=C(CSc1ccc(-c2nc3ccccc3[nH]2)cn1)N1CCN(C(=O)c2ccco2)CC1 | inconclusive: 89.1 µM [inhibitor, partial curve, poor fit] | – |
| CC(=O)c1cccc(Nc2cc(C)nc3c(C)cc(C)cc23)c1 | inconclusive: 89.1 µM [inhibitor, single point] | – |
| COc1ccc2nc(C)cc(Nc3ccc(N4CCOCC4)cc3)c2c1 | inconclusive: 50.1 µM [inhibitor, partial curve] | – |
| Cc1cc(/C=C/c2ccnc3ccccc23)ccc1N | – | inactive: -12.7% |
| COc1ccc2c(c1)O/C(=C\c1ccccc1C)C2=O | inconclusive: 50.1 µM [inhibitor, partial curve, poor fit] | – |
| COc1cc(/C=C2\SC(=O)N(c3cccc(Cl)c3)C2=O)cc([N+](=O)[O-])c1O | active: 89.1 µM | – |
| COc1cc2cc(C(=O)N/N=C/c3ccccc3Cl)[nH]c2cc1OC | inconclusive: 11.2 µM [inhibitor, full curve] | – |
| O=S1(=O)N[C@H](c2ccccc2)C[C@H](c2ccc(C(F)(F)F)cc2)O1 | inconclusive: 70.8 µM [inhibitor, partial curve, poor fit] | – |
| CCOC(=O)c1cnc2c(C)c(Cl)ccc2c1NCCCN1CCOCC1 | inconclusive: 25.1 µM [inhibitor, partial curve, poor fit] | – |
| CC(=O)Nc1cccc(-c2nc3ccccc3[nH]2)c1 | – | inactive: -0.459% |
| CCc1ccc(C2C(C#N)=C(N)SC(N)=C2C#N)s1 | inconclusive: 17.8 µM [inhibitor, partial curve] | – |
| COc1cc(/C=C2/SC(=S)N(CC3CCCO3)C2=O)ccc1O (stereo not given) | active: 44.7 µM | – |
| COc1ccc(Cl)cc1NC(=O)C1CCN(S(=O)(=O)c2ccc(F)cc2)CC1 | inconclusive: 89.1 µM [inhibitor, single point] | – |
| COc1cccc(N=c2oc3ccc(OC)cc3cc2-c2nc3ccccc3[nH]2)c1 | inconclusive: 50.1 µM [inhibitor, partial curve] | – |
| COc1ccc(Nc2nc(-c3cccs3)nc3ccccc23)cc1 | inconclusive: 44.7 µM [inhibitor, partial curve, poor fit] | – |
| COc1ccc(/C=C2\C(=O)NC(=S)N2C(=O)c2ccc(C)cc2)cc1 | inconclusive: 50.1 µM [inhibitor, partial curve] | – |
| CCc1c(C)nc(SCc2ccccn2)[nH]c1=O | – | inactive: 2.66% |
| Cc1ccc(S(=O)(=O)N2[C@@H](c3ccc(Br)cc3)C(C(=O)O)=CC[C@H]2c2ccc(C(C)C)cc2)cc1 | inconclusive: 56.2 µM [inhibitor, partial curve, poor fit] | – |
| O=C(COC(=O)c1ccc([N+](=O)[O-])o1)Nc1cccc(S(=O)(=O)N2CCCCC2)c1 | inconclusive: 50.1 µM [inhibitor, partial curve] | – |

| SMILES | Potency | activity change, negative = inhibition |
| --- | --- | --- |
| CC(=O)Nc1ccc(NC(=O)c2nc(SCc3ccccc3F)ncc2Cl)cc1 | inconclusive: 100 µM [inhibitor, partial curve, poor fit] | – |
| CCOC(=O)CC(NS(=O)(=O)c1ccc2[nH]cc(C(=O)O)c(=O)c2c1)c1ccc(OCC)c(OC)c1 (stereo not given) | – | inactive: -17.1% |
| Cc1nc(NC2=NCN(CCCN3CCOCC3)CN2)nc2c(C)cccc12 | active: 39.8 µM | – |
| Cc1noc(C)c1C(=O)OCC(=O)/C=C1/N(C)c2ccccc2C1(C)C | inconclusive: 79.4 µM [inhibitor, partial curve, poor fit] | – |
| COCCNC(=O)c1cc2c(-c3ccc(Cl)cc3)nn(C)c2s1 | inconclusive: 63.1 µM [inhibitor, partial curve, poor fit] | – |
| O=[N+]([O-])c1ccc(/C=N/Nc2ccc3ccccc3c2)o1 | inconclusive: 28.2 µM [inhibitor, partial curve] | – |
| Cc1ccc2c(c1)Cc1nc3ccccc3nc1-2 | inconclusive: 35.5 µM [inhibitor, partial curve] | – |
| CCOC(=O)c1oc2ccc(CNC(C)(C)C)c(Cl)c2c1C | inconclusive: 70.8 µM [inhibitor, partial curve, poor fit] | – |
| Cc1ccc2c(c1)c1c(c(=O)n(-c3cccc(Cl)c3)c(=O)n1CC(=O)c1ccc(Cl)cc1)n2C | – | inactive: 48.8% |
| COc1ccc2nc(N/C(N)=N/C(=S)Nc3cccc(C)c3)nc(C)c2c1 | inconclusive: 44.7 µM [inhibitor, partial curve] | – |
| COc1cc(NC(=O)c2noc3c2CCC3)c(OC)cc1Cl | inconclusive: 56.2 µM [inhibitor, partial curve] | – |
| N#Cc1c(NC(=O)c2nc3ncccn3n2)sc2c1CCCCC2 | – | inactive: 9.66% |
| O=C(c1cc(COc2ccc(F)cc2Cl)on1)N1CCCCCC1 | – | inactive: -3.54% |
| CN(C)c1ccc(/C=C/c2ccnc3ccccc23)cc1C=O | inconclusive: 31.6 µM [inhibitor, single point] | – |
| COc1ccc(-c2cn3cccnc3n2)cc1NC(=O)COc1ccccc1 | – | inactive: -2.79% |
| CC1=NN(Cc2ccccc2)C(=O)C1 | inconclusive: 89.1 µM [inhibitor, single point] | – |
| COc1cc(C(C)=O)ccc1OCc1cn(CC(=O)c2ccc(O)cc2)nn1 | inconclusive: 89.1 µM [inhibitor, single point] | – |
| O=C(NN=Cc1ccc(F)cc1)c1ccccc1NS(=O)(=O)c1cccs1 | – | inactive: -6.73% |
| CC(C)c1ccc(NC(=O)c2ccc3c(c2)CCCN3S(C)(=O)=O)cc1 | inconclusive: 89.1 µM [inhibitor, partial curve, poor fit] | – |
| COc1ccc(NCc2nc3ccccc3n2CCOc2ccccc2)cc1 | inconclusive: 89.1 µM [inhibitor, single point] | – |
| C=C(CN(C)C)C(=O)c1cc(C)ccc1C | – | inactive: -4.11% |
| Nc1nc(Nc2cccc(F)c2)nc(NCCO)c1[N+](=O)[O-] | inconclusive: 31.6 µM [inhibitor, partial curve, poor fit] | – |

| SMILES | Potency | activity change, negative = inhibition |
| --- | --- | --- |
| O=C(CSc1ccccc1)Nc1ccc(Cl)c(S(=O)(=O)N2CCOCC2)c1 | inconclusive: 89.1 µM [inhibitor, partial curve, poor fit] | – |
| C/C(N)=C(/C#N)C(=O)COC(=O)c1cc(-c2ccc(Br)cc2)nc2ccccc12 | inconclusive: 89.1 µM [inhibitor, partial curve, poor fit] | – |
| C=CC[n+]1c(/C=C2\C=Cc3cc(C)ccc3N2CC)ccc2ccccc21 | active: 39.8 µM | – |
| O=c1[nH]c2c(c(=O)[nH]1)OCN(Cc1ccccc1)C2 | inconclusive: 39.8 µM [inhibitor, partial curve] | – |
| CCCCc1nc2ccccc2c(=O)n1NC(=O)c1c(O)c2c(n(CC(C)C)c1=O)CCCC2 | – | inactive: 0.233% |
| COc1ccc(-c2ocnc2C(=O)NCc2nn(-c3ccccc3)nc2C)cc1 | inconclusive: 20 µM [inhibitor, partial curve, poor fit] | – |
| Fc1cccc(CNc2ncnc3ccc(-c4ccc5c(c4)OCO5)cc23)c1 | inconclusive: 89.1 µM [inhibitor, partial curve, poor fit] | – |
| CCOC(=O)Nc1ccc2c(c1)C(=NNC(N)=S)c1ccccc1-2 | inconclusive: 35.5 µM [inhibitor, partial curve, poor fit] | – |
| Cc1ccc2c(CC(=O)N3CCN(c4cccc(Cl)c4)CC3)coc2c1C | – | inactive: -9.85% |
| O=c1[nH]c(=O)c2ncn(C3OC(CO)C(O)C3O)c2[nH]1 (stereo not given) | inconclusive: 89.1 µM [inhibitor, single point] | – |
| O=c1[nH]c2cc3c(cc2cc1CN(Cc1cccnc1)Cc1nnnn1Cc1ccco1)OCCO3 | inconclusive: 89.1 µM [inhibitor, partial curve, poor fit] | – |
| CCOc1ccc2[nH]c3c(NCC(C)C)ncnc3c2c1 | inconclusive: 39.8 µM [inhibitor, partial curve, poor fit] | – |
| Cc1[nH]c2ccccc2c1/C=C/c1ccc2ccccc2n1 | inconclusive: 50.1 µM [inhibitor, partial curve, poor fit] | – |
| CN(c1ccc(Cl)cc1)c1cc(=O)n(C)c2ccccc12 | inconclusive: 44.7 µM [inhibitor, partial curve] | – |
| N/C(=N\OC(=O)c1ccc(Cl)cc1Cl)c1ccccn1 | – | inactive: -5.69% |
| O=C1CCN(CCc2ccccc2)CCN1[C@H](CSc1ccccc1)c1ccccc1 | inactive | – |
| CCc1ccc(/C=C2/SC(=S)NC2=O)cc1 | – | inactive: -3.27% [at 57.1 µM] |
| CCCCC(=O)Nc1ccc(C(=O)NNC(=O)c2ccc(C)c(Br)c2)cc1 | – | inactive: -14% |
| CCCn1c(=O)c2sccc2n2c(CCCC(=O)NCCOC)nnc12 | – | inactive: -8.58% |
| COCCn1c(=S)[nH]c2cc(C(=O)N3CCN(Cc4ccccc4)CC3)ccc2c1=O | – | inactive: 13.1% |
| Cc1cc(O)c(C(c2cccc(Cl)c2)N2CCN(c3ccccc3)CC2)c(=O)n1Cc1ccco1 (stereo not given) | inconclusive: 79.4 µM [inhibitor, partial curve, poor fit] | – |
